In PubChem BioAssay AID1347417 (National Center for Advancing Translational Sciences (NCATS), 2020):
The campaign covered roughly 120,000 compounds. About 5,300 (4.4%) were called active. The inconclusive results got no clear call from the source; some entries with a clear call stand among them for comparison. Calls come from the whole dose curve; as a rule, active = well fitted inhibition curve with a large enough effect; inconclusive = small, poorly fitted or top-dose-only effect; inactive = no such curve, though single readings can be large or run the other way. Potencies beside an inconclusive call are fits to weak or partial responses and may not hold up.

Assay: qHTS Primary assay for Inhibitors of Plasmodium falciparum Dd2 growth in vitro; note: nearly all actives have a fitted effect of over 65% in size;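 for activity, negative = inhibition: plate controls were DMSO vehicle for no effect and reference drug for full effect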
Settings: P. falciparum Dd2 growth, SYBR Green, 72 h; activity, negative = inhibition: at 28.9 µM (top of the series) unless noted; series mostly up to 28.9 µM
From the text: Malaria, a parasitic disease spread to humans through the bite of a Plasmodium infected Anopheles mosquito, continues to be a global health burden affecting millions of people, with an estimated 228 million cases and 405,000 deaths in 2018. Concerns about safety and limitations of current antimalarial treatments strongly emphasize the need to develop new therapeutic options. The scarce number of chemotypes and validated drug targets with efficacy against the liver stage, have hindered development of new antimalarials. To address this, a chemoprophylactic drug discovery effort was conducted through a combined phenotypic high-throughput asexual blood stage and liver stage screen, providing a robust foundation to identify liver-stage active lead chemotypes. Compounds were initially screened against Plasmodium falciparum Dd2 strain parasites using a in vitro SYBRGreen-1 based 72 hr proliferation assay to identify novel chemotypes to advance to liver stage assays. NIH/NCATS Early Translation Branch Assay Submitter (PI): Anton Simeonov Ph.D.
Malaria-vivax Assay Protocol: PROTOCOL TABLE (as described by Inglese et al., 2007) SEQUENCE No. (e.g., 1, 2, 3, etc.); […] (e.g., Cells, Incubation, Reagent, etc.); VALUE; DESCRIPTION SEQUENCE, Parameter, Description 1; Reagent; 3 uL complete malaria growth medium, 1536 TC treated Black clear bottom plate 2; Controls; 23 nL positive control artesunate (300 nM final) to column 1; Neutral control DMSO to columns 2-4 3; Compound; 23 nL of compounds in dose response concentration (29 uM to 0.5 nM final) 4; Reagent; 5 uL malaria infected red blood cells (2.5% hematocrit final, 0.3% parasitemia 5; Time; 72 hours at 37C (5% O2, 5% CO2, 90% N2; 95% Rh) 6; Reagent; 2 uL lysis buffer/SYBRGreen-1, 25 sec shake immediately following dispense 7; Time; ~16 hours at 37C (5% O2, 5% CO2, 90% N2; 95% Rh) 8; Detector; EnVision (PerkinElmer) bottom read at 485/14nm excitation and 535/25 nm emission NOTES (numbers refer to sequence above): 1; Complete Malaria Growth Media: 1X RPMI-1640 w/L-glutamine, 5.5g/L Albumax II, 367 uM Hypoxanthine, 25 mM HEPES, 0.25% Sodium Bicarbonate, 35 uM Gentamicin sulfate 2; Controls were added using the Kalypsis Pintool (Wako USA) equipped with 1536 pinhead 3; Compounds were added in a 7-point, titration with a high final concentration of 29 uM by Pintool from seven inter-plate titrations of library plates and two DMSO control plates at the beginning and end (see Yasgar et al., 2008). 4; Red blood cells infected with Plasmodium falciparum Dd2 parasites were used. 6; Lysis buffer: 20 mM Tris-HCl, 10 mM EDTA, 0.16% Saponin, 1.6% Triton-X, 10X SYBR Green. REFERENCE: Inglese J, Shamu CE, Guy RK. 2007. Reporting data from high-throughput screening of small-molecule libraries. Nat Chem Biol. doi:10.1038/nchembio0807-438 Yasgar A, Shinn P, Jadhav A, Auld D, Michael S, Zheng W, Austin CP, Inglese J, Simeonov A. 2008. Compound Management for Quantitative High-Throughput Screening. J Lab Autom 13:79-89. doi:10.1016/j.jala.2007.12.004
Potency is the fitted concentration of half-maximal effect; tags give direction and shape of the fitted curve.

Question: Which “activity, negative = inhibition” value does the source give for COCCN1C(=O)CO[C@H]2CN(S(C)(=O)=O)C[C@H]21 here?
Answer: The value was inactive: 18% [at 44.1 µM].

Question: With CCc1cccc(C)c1Nc1c(-c2ccc(N(C)C)cc2)nc2ncccn12 as the compound, how does the Potency read?
Answer: The Potency was inconclusive: 11.2 µM [inhibitor, single point].

Question: With Cc1ccc(C)c(CN2C(=O)c3ccccc3Sc3ccc(C(=O)NCc4ccco4)cc32)c1 as the compound, how does the Potency read?
Answer: The Potency was active: 11.2 µM.

Question: Which Potency does the source give for Cc1cccc(OCc2ccc(-c3nc(C#N)c(N4CCN(c5ccccc5)CC4)o3)o2)c1 here?
Answer: Its Potency is active: 10 µM.

Question: With COCc1nc(C2CCCN(C(=O)CC(C)C)C2)no1 (stereo unspecified) as the compound, how does the “activity, negative = inhibition” value read?
Answer: The value was inactive: 33.1%.

Question: Which “activity, negative = inhibition” value does the source give for CC1=C[C@@H](CNC(=O)C2CC2)[C@H](C(C)C)C[C@H]1Cc1nc2ncccc2[nH]1 here?
Answer: The value was inactive: -5.71% [at 44.1 µM].

Question: Which Potency does the source give for COc1ccc(OC)c(CN2CCC3(CC2)OC(=O)N(Cc2cccnc2)C3(C)c2ccccc2)c1 (stereo unspecified) here?
Answer: The Potency was inconclusive: 1.41 µM [inhibitor, partial curve, poor fit].

Question: With COc1ccccc1CCN1CCCC(CN(C)C(=O)C(=O)c2cccn2C)C1 (stereo unspecified) as the compound, how does the Potency read?
Answer: Its Potency is active: 14.1 µM.

Question: For COc1ccccc1-c1nc(C(=O)NCc2cccnc2)n2ccccc12, which Potency is on record?
Answer: The Potency was inconclusive: 11.2 µM [inhibitor, single point].

Question: Which “activity, negative = inhibition” value does the source give for COc1ccc(C[C@H](NC(=O)[C@@]2(O)C[C@@H](O)[C@H](O)[C@@H](NC(=O)Nc3ccc(OC(F)(F)F)cc3)C2)C(N)=O)cc1 here?
Answer: The value was inactive: -0.285%.

Question: Which Potency does the source give for O=C(NCCSc1c(-c2ccc(Br)cc2)[nH]c2ccccc12)c1ccc(S(=O)(=O)N2CCOCC2)cc1 here?
Answer: Its Potency is active: 5.62 µM.

Question: Which Potency does the source give for COc1cccc(-c2cc3c(=O)n(CC(O)c4ccccc4)ccn3n2)c1 (stereo unspecified) here?
Answer: The Potency was inconclusive: 8.91 µM [inhibitor, partial curve, poor fit].

Question: For COC(=O)c1c(-c2cccs2)csc1NC(=O)c1cc(OC)cc(OC)c1, which Potency is on record?
Answer: Its Potency is inconclusive: 17.8 µM [inhibitor, single point].

Question: For O=C1NCc2ccccc2CC12CCN(Cc1ccc(Oc3ccccc3)cc1)C2 (stereo unspecified), which Potency is on record?
Answer: The Potency was active: 11.2 µM.

Question: Which Potency does the source give for O=C(NC1CCCc2c1[nH]c1ccccc21)c1cn(C2CC2)c(=O)c2ccccc12 (stereo unspecified) here?
Answer: Its Potency is inconclusive: 15.8 µM [inhibitor, single point].

Question: With COC(=O)[C@@H]1Cc2c([nH]c3ccccc23)[C@H]2C[C@@H](NCCCn3ccnc3)C[C@@H](c3ccccc3F)N21 as the compound, how does the Potency read?
Answer: The Potency was inconclusive: 1.58 µM [inhibitor, partial curve, poor fit].

Question: With COc1ccc(C(=O)N2CC(C(=O)NCCc3ccccc3)CC(c3ccccc3)C2)cc1OC (stereo unspecified) as the compound, how does the Potency read?
Answer: The Potency was inconclusive: 1 µM [inhibitor, full curve, poor fit].

Question: For COc1ccc([C@H]2C[C@@H](O)[C@@H](O)[C@@H]2NS(=O)(=O)c2ccc(C(F)(F)F)cc2)cc1, which “outcome” value is on record?
Answer: The value was “inactive [at 44.1 µM]”.

Question: Which “activity, negative = inhibition” value does the source give for CC(C)C[C@@H](N)C(=O)N1CCC2(CC1)Nc1ccccc1NC2=O here?
Answer: The value was inactive: 2.86%.

Question: Which Potency does the source give for CCCN1CCC2(CCN(C(=O)c3ccc(Cl)cc3)CC2)Oc2ccccc21 here?
Answer: Its Potency is inconclusive: 17.8 µM [inhibitor, single point].

Question: Which Potency does the source give for CCN(CC)c1ccc(NC(=O)c2cc(CN3CCCC3)on2)c(C)c1 here?
Answer: Its Potency is inconclusive: 20 µM [inhibitor, single point].

Question: For CCOc1cc(CNC(=O)c2ccc(NC(=O)c3nsc4ccccc34)cc2)ccc1OC, which Potency is on record?
Answer: The Potency was inconclusive: 12.6 µM [inhibitor, single point].

Question: With COc1ccc(-c2cc3c(=O)n(CCNC(=O)c4ccoc4)ccn3n2)cc1 as the compound, how does the Potency read?
Answer: Its Potency is inconclusive: 1.12 µM [inhibitor, partial curve, poor fit].

Question: With COC(=O)c1ccccc1NC(=O)Cn1c(-c2ccc(F)cc2)nc(C)cc1=O as the compound, how does the Potency read?
Answer: The Potency was inconclusive: 2.51 µM [inhibitor, full curve, poor fit].

Question: For CN(C)c1ccc(C(=O)NC2CCN(c3cn[nH]c(=O)c3)CC2)cc1, which “outcome” value is on record?
Answer: Its value is “inactive”.

Question: For COc1cc2c(cc1CCc1ccccc1)N(C(=O)c1c[nH]c3ccccc13)CC21CCN(C(C)=O)CC1, which Potency is on record?
Answer: The Potency was inconclusive: 1.12 µM [inhibitor, partial curve, poor fit].

Question: For COc1ccc(C(=O)NC2(C(F)(F)F)C(=O)NC(C)=C2C#N)cc1 (stereo unspecified), which Potency is on record?
Answer: The Potency was inconclusive: 0.01 µM [inhibitor, full curve, poor fit].

Question: For CC1(C)[C@H]2CC[C@@H](CNC(=O)C3CC3)[C@@H]1C2, which Potency is on record?
Answer: The Potency was inconclusive: 28.2 µM [inhibitor, single point].

Question: For Cc1ccccc1NC(=O)c1cnc2c(c1)N(C(=O)Cc1cn(C)c3ccccc13)CCC2, which Potency is on record?
Answer: Its Potency is inconclusive: 10 µM [inhibitor, partial curve, poor fit].

Question: Which “activity, negative = inhibition” value does the source give for Cc1ccc(C(=O)N2CCC3(CC2)CC(O)CCO3)cc1 (stereo unspecified) here?
Answer: Its value is inactive: -18.4%.

Question: Which “activity, negative = inhibition” value does the source give for O=C(Cn1nc2n(c1=O)CCCC2)NCc1ccc(F)cc1 here?
Answer: The value was inactive: 69.4%.

Question: With O=C(c1ccco1)N1Cc2[nH]cnc2C[C@H]1c1nc(-c2ccc(F)cc2)no1 as the compound, how does the Potency read?
Answer: Its Potency is inconclusive: 28.2 µM [inhibitor, single point].

Question: With COc1ccc(Cn2c(SCC(=O)NCc3ccccc3)nc3ccccc32)cc1 as the compound, how does the Potency read?
Answer: The Potency was inconclusive: 3.16 µM [inhibitor, full curve, poor fit].

Question: For Cc1noc([C@@H]2CN(C(=O)COc3ccccc3)C[C@H]2CO)n1, which Potency is on record?
Answer: The Potency was inconclusive: 0.316 µM [inhibitor, partial curve, poor fit].

Question: Which Potency does the source give for Cc1cn2nc(C(=O)NCc3ccccn3)cc2c(=O)[nH]1 here?
Answer: Its Potency is inconclusive: 0.316 µM [inhibitor, full curve].

Question: For CC1(c2cccnc2)N(Cc2ccccc2)C(=O)OC12CCN(C(=O)c1cccc(Cl)c1)CC2 (stereo unspecified), which Potency is on record?
Answer: The Potency was inconclusive: 8.91 µM [inhibitor, partial curve, poor fit].

Question: Which “activity, negative = inhibition” value does the source give for COC1CN(C2CCN(C(=O)C3CCOCC3)CC2)C12CCOCC2 (stereo unspecified) here?
Answer: Its value is inactive: -1.58%.

Question: For COc1ccccc1C(=O)Nc1cc(-c2cccc(Br)c2)nn1-c1ccccc1, which Potency is on record?
Answer: The Potency was inconclusive: 11.2 µM [inhibitor, single point].

Question: With O=C1NCCCCCCN(Cc2ccncc2)[C@@H]2CN(C(=O)Nc3ccccc3)CC[C@H]12 as the compound, how does the Potency read?
Answer: Its Potency is inconclusive: 8.91 µM [inhibitor, single point].

Question: For CN1CCC([C@@H]2CN(S(=O)(=O)c3cccc(C#N)c3)C[C@H]2C(N)=O)CC1, which “activity, negative = inhibition” value is on record?
Answer: The value was inactive: -8.19%.

Question: Which “activity, negative = inhibition” value does the source give for O=C1NC(C(=O)Nc2cccc(Cl)c2)Cn2cccc21 (stereo unspecified) here?
Answer: The value was inactive: -18.1%.
